# Reference: the supplement of paper PMC7125110
# ± gives the standard error. Variants at the background level are over-represented here.
# B1: glmS ribozyme (parent)
# chain: AUAAAAGCGCCAGAACUACAGAAAUGUAGUUGACGAGGAGGAGGUUUAUCGAAUUUUCGGCGGAUGCCUCCAAA
# Variants of: B1
# Test: self-cleavage kobs at 10000 uM GlcN6P; higher = faster cleavage; RNA array
# Settings: with glucosamine-6-phosphate
# Outline: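 Barcoded ribozyme variants on sequenced MiSeq chips were transcribed in situ by E. coli RNA polymerase and followed at 37 °C through a hybridised Cy3 probe. Glucosamine-6-phosphate at 40 μM to 10 mM in HEPES/KCl/Mg(OAc)2 buffer was flowed in, and tiles were imaged over ~14 h. Signals were normalised to baseline and to non-cleaving reference variants, and per-tile medians were fit to one- or two-exponential decays to give kobs. Weighted Michaelis–Menten fits across concentrations gave kcat and KM.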
row,Variant,self-cleavage kobs at 10000 uM GlcN6P
1,C11A C16G G60U,< 1e-05 s⁻¹
2,C11A G38C C58A,< 1e-05 s⁻¹
3,C11A U31C U45A,4.34e-05 ± 1.5e-05 s⁻¹
4,C11A U54G A64G U69G,9.78e-05 ± 2.2e-05 s⁻¹
5,C11G A53U G60A G63A A64U,< 1e-05 s⁻¹
6,C11G G29U C34A A36U G37U G44C C68U,< 1e-05 s⁻¹
7,C11G G41A G43C,< 1e-05 s⁻¹
8,C11G U31C A36C,< 1e-05 s⁻¹
9,C11U A15G C16U C50G U54G U56A U69C,< 1e-05 s⁻¹
10,C11U A48C G60U G63U,< 1e-05 s⁻¹
11,C11U C50G C70G,3.88e-05 ± 1.4e-05 s⁻¹
12,C11U G29C A33U G60C,< 1e-05 s⁻¹
13,A12C G41A U46G,0.000334 ± 7.8e-05 s⁻¹
14,A12G A14C A15G,0.000141 ± 3e-05 s⁻¹
15,A12G A36C C67G,< 1e-05 s⁻¹
16,A12G C16U A42U C61A,< 1e-05 s⁻¹
17,A12G C50U A52G U69G C71A,3.23e-05 ± 1.6e-05 s⁻¹
18,A12G G29U G35C,< 1e-05 s⁻¹
19,A12G G32C A48C G59C,< 1e-05 s⁻¹
20,A12G G35U A53G,< 1e-05 s⁻¹
21,A12G U30G U47C U49C,< 1e-05 s⁻¹

row,Variant,self-cleavage kobs at 10000 uM GlcN6P
1,A12G U47G A48U G60A,< 1e-05 s⁻¹
2,A12U A14C A36C,< 1e-05 s⁻¹
3,A12U A33U C67U,0.000146 ± 2.9e-05 s⁻¹
4,A12U A42U C70U,0.00014 ± 3.1e-05 s⁻¹
5,A12U A52C A53U C70G,< 1e-05 s⁻¹
6,A12U C16U G38U A42U,< 1e-05 s⁻¹
7,A12U C34A A39U C70U,< 1e-05 s⁻¹
8,A12U G38A G60U,< 1e-05 s⁻¹
9,A12U G40U U54A,0.000861 ± 0.00024 s⁻¹
10,A12U U31C U49C G63C,< 1e-05 s⁻¹
11,G13A A36C G38U,< 1e-05 s⁻¹
12,G13A A42G,0.000882 ± 0.00023 s⁻¹
13,G13C A15U C58G,0.000104 ± 1.7e-05 s⁻¹
14,G13C C16A A36U,< 1e-05 s⁻¹
15,G13C G35U U47C A48C C61G C70U,< 1e-05 s⁻¹
16,G13C G35U U54C,< 1e-05 s⁻¹
17,G13C G38U A48U C50A,< 1e-05 s⁻¹
18,G13C U56G A64G C67A,3.32e-05 ± 1.4e-05 s⁻¹
19,G13U A14G C61U C70G,< 1e-05 s⁻¹
20,G13U A33C G63A,< 1e-05 s⁻¹
21,G13U A48U C70A,< 1e-05 s⁻¹

row,Variant,self-cleavage kobs at 10000 uM GlcN6P
1,G13U C16A U27C U30A C50A,< 1e-05 s⁻¹
2,G13U G35U C58G C61G,< 1e-05 s⁻¹
3,G13U U54A U56C,0.000163 ± 3.3e-05 s⁻¹
4,A14U A36G A64G C70G,< 1e-05 s⁻¹
5,A14U A42G C58A,0.000409 ± 0.00014 s⁻¹
6,A14U A48C U56G C68A,< 1e-05 s⁻¹
7,A14U A53C C67U,0.000208 ± 3.8e-05 s⁻¹
8,A14U C16U G51C C67G,< 1e-05 s⁻¹
9,A14U C34G A48U,< 1e-05 s⁻¹
10,A14U C50G G62A A64G,0.000115 ± 2.4e-05 s⁻¹
11,A14U G44U U45G U46G,4.76e-05 ± 1.9e-05 s⁻¹
12,A14U U31C G38U,< 1e-05 s⁻¹
13,A15C A42C C67G C68U,< 1e-05 s⁻¹
14,A15G G29U A36U G38U U69C,< 1e-05 s⁻¹
15,A15G G51U C71A,< 1e-05 s⁻¹
16,A15G U49A G62U,< 1e-05 s⁻¹
17,A15U A33G C61A,< 1e-05 s⁻¹
18,A15U A36U A39C,< 1e-05 s⁻¹
19,A15U A39G U57C,6.65e-05 ± 1.8e-05 s⁻¹
20,A15U A52U C68A,< 1e-05 s⁻¹
21,A15U C34G U55A,< 1e-05 s⁻¹

row,Variant,self-cleavage kobs at 10000 uM GlcN6P
1,A15U C50U C58G,< 1e-05 s⁻¹
2,A15U G21U,0.00395 ± 0.00079 s⁻¹
3,C16A C50A U65G,< 1e-05 s⁻¹
4,C16A G29U U45G,0.0036 ± 0.00061 s⁻¹
5,C16A G35U G44A U69G C70G,< 1e-05 s⁻¹
6,C16A G41A G51C,< 1e-05 s⁻¹
7,C16A U30C A53C C70G,< 1e-05 s⁻¹
8,C16A U30C C61G,< 1e-05 s⁻¹
9,C16A U31G G38U A53G,< 1e-05 s⁻¹
10,C16A U49G C68A,< 1e-05 s⁻¹
11,C16G G29A G63A,< 1e-05 s⁻¹
12,C16G G29U C58A,0.000585 ± 0.00014 s⁻¹
13,C16G U45C C67G,0.000811 ± 0.00018 s⁻¹
14,C16U A36U A39U,< 1e-05 s⁻¹
15,C16U A42U G60C,< 1e-05 s⁻¹
16,C16U G40U G66U,4.28e-05 ± 1.2e-05 s⁻¹
17,G21U A33U C70U,0.000159 ± 2.9e-05 s⁻¹
18,G29A G43U G51A,< 1e-05 s⁻¹
19,G29C A36C,< 1e-05 s⁻¹
20,G29C U46A,7.43e-05 ± 1.7e-05 s⁻¹
